Columns and labels:
[1] = target: T1, R. pickettii NIS synthetase (Ralstonia pickettii, UniProt A0ABM9IQT6); assay: in vitro siderophore biosynthesis, CAS detection and LC-MS of homorhizoferrin (m/z […]); type: biochemical; details: 10 mM cadaverine; 3 mM Na-citrate, 2.25 mM ATP, 15 mM MgCl2, 50 mM HEPES pH 7.4, RT 2 h
T1 construct: gene R38712_03424; full-length ORF (655 residues), N-terminal His tag from pET28b-TEV, codon-optimised, expressed in E. coli

[2] = target: T1, R. pickettii NIS synthetase; assay: in vitro siderophore biosynthesis, CAS detection and LC-MS of rhizoferrin (m/z […]); type: biochemical; details: 10 mM putrescine; 3 mM Na-citrate, 2.25 mM ATP, 15 mM MgCl2, 50 mM HEPES pH 7.4, RT 2 h

NCCCCCN [cadaverine]
in vitro siderophore biosynthesis, CAS detection and LC-MS of homorhizoferrin (m) [1]: Putrescine and cadaverine produced a strong CAS reaction

NCCCCN [putrescine]
in vitro siderophore biosynthesis, CAS detection and LC-MS of rhizoferrin (m/z 4) [2]: Putrescine and cadaverine produced a strong CAS reaction

Source: PMC7857480 (The Journal of Biological Chemistry, 2020)
